The values below come from PubChem BioAssay AID1159614 (National Center for Advancing Translational Sciences (NCATS), 2016).

Hit rate of the full screen: of about 45,000 compounds, about 65 (0.1%) were called active. Calls follow the shape of the dose curve; as a rule, active = well fitted activation curve with a large enough effect; inconclusive = small, poorly fitted or top-dose-only effect; inactive = no such curve, though single readings can be large or run the other way. This is one part of the list.

Sequence of UniProt P54803 (P54803 whole entry, looked up): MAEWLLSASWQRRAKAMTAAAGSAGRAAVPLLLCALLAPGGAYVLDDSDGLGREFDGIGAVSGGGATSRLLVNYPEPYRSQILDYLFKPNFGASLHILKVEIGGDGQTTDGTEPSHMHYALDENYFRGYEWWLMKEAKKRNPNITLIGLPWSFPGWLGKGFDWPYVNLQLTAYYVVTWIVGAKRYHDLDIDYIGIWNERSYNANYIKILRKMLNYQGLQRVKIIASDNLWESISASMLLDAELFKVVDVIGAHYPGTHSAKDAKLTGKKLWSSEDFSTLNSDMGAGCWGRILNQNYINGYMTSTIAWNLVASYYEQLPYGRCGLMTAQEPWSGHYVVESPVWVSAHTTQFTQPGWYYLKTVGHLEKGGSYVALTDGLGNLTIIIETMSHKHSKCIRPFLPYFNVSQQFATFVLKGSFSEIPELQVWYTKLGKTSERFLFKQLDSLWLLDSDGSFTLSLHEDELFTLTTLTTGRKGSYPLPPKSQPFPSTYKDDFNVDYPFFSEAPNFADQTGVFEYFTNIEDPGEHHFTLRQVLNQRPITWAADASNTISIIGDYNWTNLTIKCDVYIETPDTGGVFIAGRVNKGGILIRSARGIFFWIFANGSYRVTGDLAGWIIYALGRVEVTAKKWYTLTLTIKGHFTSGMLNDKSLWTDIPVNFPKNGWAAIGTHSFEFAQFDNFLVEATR

For the assay, the target named is Galactocerebrosidase (Homo sapiens) (UniProt P54803). The experiment in a line: A Novel Cell-Based Assay to Identify Small Molecules for B -Galactocerebrosidase. Also: 0% is about no effect; nearly all actives have a fitted effect of over 65% in size. Conditions: 145M-Twi-hGALC-G270D cells, HMU-beta-Gal fluorescence, 48 h; series mostly up to 57.5 µM; activation: at the top concentration. The procedure, abridged:
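qHTS, 1536-well; 145M-Twi-hGALC-G270D cells (WT line also made) in DMEM/F12 + 10% FBS; compound incubation on live cells; HMU-β-gal 0.1 mM final, pH 5.2, NaTC; carbonate stop; fluorescence increase = enhanced residual activity.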
In the case of `Cc1ccc(NC(=O)C2CCCN(S(=O)(=O)c3c(C)n[nH]c3C)C2)cc1Cl` (configuration not stated), the “activation” value was inactive: 7%. With `COc1cccc(CNC(=O)CSC2=Nc3ccccc3C3=NC(C)C(=O)N23)c1OC` (configuration not stated), the “activation” value is inactive: -10.6%. The figure for `COc1ccc(-c2noc(N3CCN(c4ccc(C)cc4)C(C)C3)n2)cc1OC` (configuration not stated) is inactive: -14.2%; for `Cc1ccc(CSc2ncc(Cl)c(C(=O)Oc3ccc(F)cc3)n2)cc1` it is inactive: -3.81%. For the compound `CCOc1ccc(NC(=O)Cn2c(=O)n(CCCC(=O)NCc3ccc4c(c3)OCO4)c(=O)c3ccccc32)cc1`, the “activation” value was inactive: -4.33%. With `COC(=O)c1sc2cccc(F)c2c1S(=O)(=O)NCc1ccc(Cl)cc1`, the “activation” value is inactive: -12.3%. In the case of `CCOC(=O)c1c(NC(=O)C(C)Sc2cn(CCNC(=O)c3ccccc3OC)c3ccccc23)sc2c1CCC2` (configuration not stated), the “activation” value is inactive: -22.7%. Turning to `Cc1ccc(-n2nc3ccc(NC(=O)Cc4ccc(Cl)cc4)cc3n2)cc1`, the “activation” value was inactive: -13.7%.

Regarding `CCOC(=O)COc1ccc(CC)cc1C(=O)c1ccn2nc(-c3ccc(Cl)cc3)cc2n1`, the “activation” value is inactive: -11.6%. Take `O=C(c1ccc2c(c1)N(Cc1ccc(F)cc1)C(=O)c1ccccc1S2(=O)=O)N1CCN(c2ccccn2)CC1`: the “activation” value was inactive: 11%. Take `COc1ccccc1CNC(=O)c1cnc2c(-c3ccccc3)c(C)nn2c1C`: the “activation” value was inactive: -17.2%. Consider `COc1ccccc1N1CCN(CCCNC(=O)c2cnn(-c3ccc(C)c(C)c3)c2C2CCN(C(=O)OC(C)(C)C)CC2)CC1`, for which the “activation” value is inactive: 4.5%. To `Fc1ccc(-c2cc(C(F)(F)F)nc(NCc3ccccc3)n2)cc1` belongs inactive: -15.5%.

As for `CCCCS(=O)(=O)c1oc(-c2ccc(F)cc2)nc1S(=O)(=O)c1ccccc1`, the “activation” value was inactive: -20.2%. The figure for `COc1ccc(CCN2CC(C(=O)NCCc3ccccc3)CC2=O)cc1OC` (configuration not stated) is inactive: -23.6%. The figure for `COc1ccc(OC)c(/C=C(\C#N)c2nc3ccccc3c(=O)[nH]2)c1` is inactive: -10.6%.

In the case of `O=C(CCC(=O)c1ccccc1)Nc1ccc(F)c(Cl)c1`, the “activation” value was inactive: -15%.

`Cc1sc2c(c1C)c(=O)n(CCc1ccccc1)c(=O)n2Cc1ccc(F)cc1`: the “activation” value is inactive: -15.1%. As for `O=S(=O)(NCCS(=O)(=O)N1CCN(c2ccccc2)CC1)c1ccc(Cl)cc1`, the “activation” value was inactive: -11%. Take `Cc1cccc(NC(=O)C2CCCN(S(=O)(=O)c3ccc4c(c3)oc(=O)n4C)C2)c1` (configuration not stated): the “activation” value was inactive: -0.402%. The figure for `Cc1ccc(C)c(S(=O)(=O)NCCc2csc(-c3ccc(Cl)cc3)n2)c1` is inactive: -21.8%. With `CC(=O)c1ccc(N2CCN(C(=O)c3cc4ccc5cccnc5c4[nH]3)CC2)cc1`, the “activation” value was inactive: -17.5%. To `CCn1c(=O)n(-c2cccc(Cl)c2)c(=O)c2sc3ccccc3c21` belongs inactive: 3.41%; to `CCc1nn(CC(=O)N2CCN(c3ccc(Cl)cc3)CC2)c(=O)c2cc3occc3n12`, inactive: -14.5%; to `O=C(Nc1ccc(Cl)cc1)c1cc2nc(-c3ccc4c(c3)OCO4)cc(C(F)(F)F)n2n1`, inactive: -18.4%. To `O=C(c1cnc(N2CCCCC2)c2ccccc12)N1CCN(c2ccc(Cl)cc2)CC1` belongs inactive: -0.866%.

As to `COc1ccc(C(=O)Nc2ccccc2-c2nc(-c3ccc(OC)cc3)no2)cc1`, the “activation” value was inactive: 2.93%.

Take `CCOC(=O)c1ccc2c(c1)[C@@H]1C=CC[C@@H]1[C@H](c1cccc(OC)c1OC)N2`: the “activation” value was inactive: -9.3%. To `Cc1cc(C)c2sc(N(Cc3cccnc3)C(=O)CCOc3ccccc3)nc2c1` belongs inactive: -3.98%; to `CCCC(=O)C1=C(c2cccc(OC)c2)N(C(=O)CCC)n2c(C)nnc2S1`, inactive: -0.224%; to `CCCN1C(=O)C(O)(CC(=O)c2ccc(C(C)C)cc2)c2ccccc21` (configuration not stated), inactive: -12.6%. For `COC(=O)c1sc2c(c1C)c(=O)n(-c1ccccc1)c(=O)n2CC(=O)Nc1cccc(C)c1`, the “activation” value was inactive: -0.902%.

As to `CCc1ccccc1NS(=O)(=O)c1ccc2c(c1)CCCN2C(=O)C1CCC1`, the “activation” value was inactive: -1.9%. For the compound `CC(C)NC(=O)c1ccc2c(c1)N(Cc1cccc(Cl)c1)C(=O)c1ccccc1S2=O` (configuration not stated), the “activation” value was inactive: -15.3%. For the compound `Cc1nn2c(=O)cc(COC(=O)c3ccccc3NC(=O)c3cccs3)nc2s1`, the “activation” value was inactive: -6.95%.

With `COc1ccc(NC(=O)CN2CCN(Cc3ccccc3Cl)S2(=O)=O)cc1Cl`, the “activation” value is inactive: -8.65%.

`COc1cc(OC)c(NC(=O)N2CCC(CN3CCOCC3)CC2)cc1Cl`: the “activation” value was inactive: -7.81%. The figure for `CN1CCN(Cc2c(O)ccc3cc(-c4ccc(Cl)cc4)c(=O)oc23)CC1` is inactive: -21.3%; for `CCN(C(=O)Cn1c(=O)oc2cc(S(=O)(=O)N3CCCCC3)ccc21)c1ccccc1` it is inactive: -8.19%; for `CCc1cccc(NC(=O)CCc2c(C)nc3c(-c4ccccc4)c(C)nn3c2C)c1` it is inactive: -6.24%. Consider `O=c1[nH]sc2cc(Cl)ccc12`, for which the “activation” value was inactive: -11.4%. As for `COc1ccc(N2CCN(C(=O)C3Cc4ccccc4N3C(C)=O)CC2)cc1` (configuration not stated), the “activation” value is inactive: -15.5%. To `COc1cccc(CNC(=O)c2c(C)oc3ncnc(N4CCOCC4)c23)c1` belongs inactive: 0.325%; to `CCOc1cc(CNC(=O)C2CCN(c3nc4ccccc4[nH]3)CC2)cc(OCC)c1OCC`, inactive: 0.452%. Take `COc1cccc(CC(=O)Nc2ccc(-c3nc4ccccc4s3)cc2Cl)c1`: the “activation” value is inactive: -3.39%. For `CCN(CC)CCCC(C)Nc1ccnc2cc(Cl)ccc12` (configuration not stated), the “activation” value is inactive: -32.9% [at 23.8 µM].

`Cc1cc(C)cc(N2CCn3c2nc2c3c(=O)n(C/C=C/c3ccccc3)c(=O)n2C)c1`: the “activation” value was inactive: -0.912%.
